Z-score data for 108 compounds are collected here from PubChem BioAssay AID488969 (Vanderbilt High Throughput Screening Facility, 2010).

Whole data set: some 110,000 compounds, median “z-score” near -0.1, cut for the highest 2% near 2. This is one part of the list. Activity calls are given as the source filed them.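 How the source made its calls: active means z-score in the third read window above 3 or below -3; inactive means the rest.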

This assay deals with Metabotropic glutamate receptor 8 (Rattus norvegicus) (UniProt P70579). Nature of the assay: rat mGluR8 modulators via GIRK flux, primary screen, cell-based, thallium flux, HTS (AID 488969). To be noted: HEK293 rat mGluR8, GIRK (G protein-gated inwardly rectifying potassium channel) thallium flux, FluoZin2; at 10 µM; stronger effect = higher value; submaximal glutamate (EC20) added with thallium.
UniProt P70579, sequence (P70579 whole entry, looked up): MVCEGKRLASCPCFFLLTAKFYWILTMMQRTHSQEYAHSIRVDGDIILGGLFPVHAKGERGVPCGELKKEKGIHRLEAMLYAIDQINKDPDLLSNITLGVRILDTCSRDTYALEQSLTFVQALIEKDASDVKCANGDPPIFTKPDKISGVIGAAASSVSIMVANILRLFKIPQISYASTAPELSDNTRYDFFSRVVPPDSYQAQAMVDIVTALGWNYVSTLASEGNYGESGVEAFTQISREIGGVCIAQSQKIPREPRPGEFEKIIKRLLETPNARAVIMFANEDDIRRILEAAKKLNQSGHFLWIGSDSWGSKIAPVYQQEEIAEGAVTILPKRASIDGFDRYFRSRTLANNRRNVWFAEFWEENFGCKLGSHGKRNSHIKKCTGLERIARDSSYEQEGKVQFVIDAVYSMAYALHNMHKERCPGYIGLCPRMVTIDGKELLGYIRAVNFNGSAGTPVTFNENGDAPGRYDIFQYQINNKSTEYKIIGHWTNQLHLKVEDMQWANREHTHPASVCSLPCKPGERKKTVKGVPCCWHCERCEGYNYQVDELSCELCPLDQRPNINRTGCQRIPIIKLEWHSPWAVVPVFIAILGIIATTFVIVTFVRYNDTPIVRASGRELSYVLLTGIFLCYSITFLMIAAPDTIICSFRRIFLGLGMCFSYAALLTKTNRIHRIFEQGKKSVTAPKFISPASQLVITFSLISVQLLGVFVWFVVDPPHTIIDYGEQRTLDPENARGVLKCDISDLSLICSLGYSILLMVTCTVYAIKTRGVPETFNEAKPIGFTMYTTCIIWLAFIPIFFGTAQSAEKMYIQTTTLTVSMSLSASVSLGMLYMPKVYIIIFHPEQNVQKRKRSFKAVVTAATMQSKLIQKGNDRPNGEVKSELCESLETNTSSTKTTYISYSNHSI
As to `CCOc1ccc(-c2nnn(CC(=O)NCCc3c[nH]c4ccccc34)n2)cc1`, the z-score is -0.385. As for `COc1ccc(C(=O)CCN2CCCCCC2)cc1`, the z-score was -0.333. Next, `NC(=O)c1ccc(-n2nnnc2SCC(=O)Nc2ccc(N3CCOCC3)c(Cl)c2)cc1`: 0.232; `N#CCc1ccc(C(=O)c2ccccc2)s1`: -0.167. Next, `O=C1CC(c2ccco2)CC(O)=C1C=Nc1cc(Cl)ccc1O` (stereo not drawn): 0.193. Next, `Cc1cccc(OCCCC(=O)NCCc2ccccc2)c1`: -0.23; `C=CCc1ccccc1OCC(=O)OCCNC(=O)c1cccnc1`: -0.995; `Cc1ccc(NC(=O)CSc2nc3ccccc3c3nc(CCn4cncc4C)nn23)c(C)c1`: 0.57.

Regarding `COc1cccc(OCCCCCN2CCOCC2)c1`, the z-score was -0.337. The result for `O=C(O)C1CCCCC1C(=O)Nc1ccc(F)c(F)c1` (stereo not drawn) reads -0.293; that for `CCN(Cc1ccccc1)S(=O)(=O)c1ccc(S(=O)(=O)N(Cc2cccc(OC)c2)CC2CCCO2)cc1` (stereo not drawn), -0.202.

As for `CO/N=C/NC(=O)C1=NOC(CNc2ncc(C(F)(F)F)cc2Cl)C1` (stereo not drawn), the z-score is -0.0269. Turning to `CC(C)(C)NC(=O)CSc1nc(O)cc(=O)n1-c1ccccc1F`, the z-score is -0.203.

For the compound `COc1ccc(S(=O)(=O)N2CCOCC2)cc1C(C)C`, the z-score is -0.0686. In turn, `Cc1[nH]c2ccc(F)cc2c(=O)c1SC(F)(F)C(F)C(F)(F)F` (stereo not drawn) came in with a z-score of 0.655.

Regarding `NS(=O)(=O)c1ccc(NN=C2CCCCC2)c([N+](=O)[O-])c1`, the z-score was -0.071. Compound `Cc1ccc(Cc2c(C)nc3nc(SCC(=O)NCc4ccco4)nn3c2C)cc1` gave a z-score of 0.432. Regarding `Cn1c(SCC(=O)N/N=C/c2ccc([N+](=O)[O-])s2)nnc1-c1ccccc1`, the z-score is -0.166. The result for `COc1ccc(-c2cnnc(N/N=C/c3ccc(O)c(O)c3)n2)cc1` reads -0.31; that for `COc1ccc(NC(=O)N2CCN(c3cccc(C(F)(F)F)c3)CC2)cc1`, 0.558. Next, `COc1cc(C(c2sc3nc(C)nn3c2O)N2CC(C)CC(C)C2)cc(OC)c1OC` (stereo not drawn): -0.308; `COc1ccc(CN(C(=O)CSc2nnc(-c3c[nH]c4ccccc34)o2)c2ccc(F)cc2)cc1OC`: 0.675; `COc1ccc(NC(=S)NC(NC(=O)c2ccccc2Cl)C(Cl)(Cl)Cl)c([N+](=O)[O-])c1` (stereo not drawn): -0.469. The result for `CCC(OCC(O)CN1CCN(CCN2C(=O)c3cccc4cccc(c34)C2=O)CC1)c1ccccc1` (stereo not drawn) reads 0.239; that for `Cc1ccc2c(c1)c1c(n2CC(O)Cn2nc(C)c(Br)c2C)CCCC1` (stereo not drawn), 0.191. Turning to `COc1ccc(CCN(C)Cc2ccc(OCc3ccccc3)c(OC)c2)cc1OC`, the z-score is -0.513. Take `CCCC(=O)Nc1cnc(NC(=O)c2cccc(F)c2)cc1C`: the z-score was -0.239.

`CCOc1cc(C(C#N)N2CCCCC2)ccc1OC` (stereo not drawn) yielded a z-score of -0.102. `CC1(C)CC(=O)C(C=NCCO)=C(O)C1` showed a z-score of -0.374. Next, `CCC(=O)N1CCN(c2ccc(NC(=O)c3ccc(N4CCCC4)c([N+](=O)[O-])c3)cc2)CC1`: -0.186; `O=C(C1CC1)N(CCN(C(=O)C1CC1)c1ccccc1)c1ccccc1`: -0.25; `Cc1ccc2cccc(S(=O)(=O)Nc3ccc4c(c3)OCO4)c2n1`: 0.322. The result for `CCc1ccccc1NC(=O)C1CC(c2ccc(F)cc2)=NO1` (stereo not drawn) reads -0.155.

On to `O=C1NC(c2ccc(-c3ccccc3[N+](=O)[O-])o2)C(C(=O)c2ccc(Cl)cc2)C(O)(C(F)(F)F)N1` (stereo not drawn), for which the z-score stood at 0.276.

As to `COc1ccc(/C=C2/SC(=O)N(CC(O)Cn3c4ccccc4c4ccccc43)C2=O)cc1` (stereo not drawn), the z-score is -0.167. On to `CN(C1CCCCC1)S(=O)(=O)c1ccc(NC(=O)C2CCCCC2)cc1`, for which the z-score was -0.089. In turn, `CCC(=O)Nn1c(C)nnc1C` displayed a z-score of 0.492. The result for `CCc1cccc(CC)c1N(COC)C(=O)Cn1nnc2ccccc21` reads -0.43; that for `O=C(CSCc1c(Cl)cccc1Cl)NCc1cccnc1`, -0.0476. `COc1ccc(N2C(=O)[C@@H]3[C@H](C2=O)[C@H]2c4ccccc4C=CN2[C@@H]3C(=O)Nc2ccccc2)cc1` returned a z-score of -0.0536. Regarding `O=C(NC1CCCCC1)Sc1ccc(Cl)cc1`, the z-score is -0.371.

On to `COc1cc(NC(=O)COC(=O)CC(C)(C)C)c(C)cc1[N+](=O)[O-]`, for which the z-score came to 0.482.

`O=[N+]([O-])c1cc(S(=O)(=O)C(F)(F)F)ccc1Sc1nc2ccccc2[nH]1` gave a z-score of -0.379. The result for `COc1ccc(CNC(=O)c2sc(=S)n(-c3ccc(OC)cc3)c2N)cc1` reads -0.162. Next, `N#Cc1c(SCC(=O)O)nc(-c2ccccc2)c2c1CCCC2`: -0.582; `O=C(c1ccco1)N(CCCN1CCOCC1)c1nc(-c2ccc(F)cc2)cs1`: -0.586. Next, `Cc1ccccc1Cn1c(=N)n(CC(=O)c2ccc([N+](=O)[O-])cc2)c2ccccc21`: 0.33; `COc1cccc(OC)c1C(=O)N1CCN(c2ccccn2)CC1`: 0.0241. The compound `CCOc1ncccc1C(=O)OCc1ccc(C#N)cc1` came in with a z-score of -0.199.

In turn, `CC1CN(C(=O)c2cc(S(=O)(=O)N3CCCC3)c(Cl)cc2Cl)CC(C)O1` (stereo not drawn) displayed a z-score of 0.0417. Next, `O=c1[nH]cnc2c1nc(SCc1ccccc1)n2C1OC(CO)C(O)C1O` (stereo not drawn): 1.45; `Cc1ccc2c(c1)C(CCN)C(=O)N2Cc1ccccc1` (stereo not drawn): 0.672; `CCN(CC)S(=O)(=O)c1ccc(N2CCN(S(=O)(=O)c3ccccc3C#N)CC2)nc1`: -0.0272. The result for `COc1cccc(C2CN(c3ccc(F)cc3F)N=C2c2cccs2)c1OC` (stereo not drawn) reads 0.19; that for `Cc1cc2nnc(SCC(=O)NCc3cccs3)n2c2ccccc12`, -0.24; that for `O=C(O)Cc1ccc(C(=O)c2ccc(F)cc2)s1`, 0.186. For the compound `Cc1cccc(NC(=S)NNC(=O)c2csc(C(C)C)c2)c1`, the z-score is active: 8.28. Take `c1ccc(CSc2nnc(-c3ccco3)n2Cc2ccccc2)cc1`: the z-score is -0.196. Next, `Cc1ccc(S(=O)(=O)NCC(=O)OCc2csc(-c3ccccc3)n2)cc1`: -0.808; `Cn1c(=O)c2c(nc(CN3CCN(c4ccc(F)cc4)CC3)n2Cc2ccccc2F)n(C)c1=O`: -0.53; `Cc1nn(C)c(C)c1NC(=O)c1ccc(S(=O)(=O)N(C)C)cc1`: -0.138. Consider `CCOc1ccc(-n2c(SCc3nc(-c4cccs4)no3)nnc2-c2ccncc2)cc1`, for which the z-score was active: 7.31. `CC1(C)CC(=O)C2=C(C1)Oc1ncn(CCO)c(=N)c1C2c1ccccc1` (stereo not drawn) registered a z-score of 0.471. As to `CC(C)N=C1SCC(C)(/C=N/O)S1` (stereo not drawn), the z-score is -0.0171. Next, `CCCn1c2c(c(O)c(C(=O)NCc3ccccc3)c1=O)CCCC2`: -0.309; `COc1ccc(NC(=O)c2cccc(N3C(=O)NC4CC3(C)Oc3ccccc34)c2)cc1` (stereo not drawn): -0.362; `CCOc1ccc(/C=N/n2c(SC)nnc2-c2ccccc2)cc1OCC`: -1.29. `O=C(CN1CCCC1)Nc1c2c(nc3ccccc13)N(Cc1ccccc1)CC2` registered a z-score of 1.74.

`CCOc1ccc(CC(C(N)=O)C(N)=O)cc1CN(C)C` displayed a z-score of -0.46. Next, `COc1ccc(Br)cc1C(=O)Nc1ccc(O)cc1`: -0.6. The result for `Cc1cc2sc(C(=O)O)c(C)c2s1` reads -0.0814; that for `O=C1CCCN1c1ccc(S(=O)(=O)NCCc2ccc(Cl)cc2)cc1`, 0.203; that for `COc1cccc(S(=O)(=O)Nc2ccc(C(=O)NCc3ccco3)cc2)c1`, -0.154. Next, `COc1cccc(NC(C(=O)Nc2cccc(C(C)=O)c2)c2ccccc2)c1` (stereo not drawn): -0.279; `CCOC(=O)C1C(=O)CC(=O)CC1CC(C)SCC` (stereo not drawn): 0.308. Regarding `CCOc1ccc(-c2nnc3ccc(SCC(=O)Nc4nc5ccccc5s4)nn23)cc1`, the z-score was -0.542. Regarding `COc1cccc(-n2c(SCC(=O)Nc3sc4c(c3C(N)=O)CCC4)nc3ccccc3c2=O)c1`, the z-score is -0.122. Next, `Cn1ccnc1SCc1ccc([N+](=O)[O-])cc1`: -0.0706. Next, `Cc1ccc(S(=O)(=O)NC2(C(F)(F)F)C(=O)Nc3c2c(=O)n(C)c(=O)n3C)cc1` (stereo not drawn): -0.423; `CCOC(=O)Cc1csc(NC(=O)c2cc(OC)cc(OC)c2)n1`: -0.412; `CCCCn1c(NCCO)nc2ccccc21`: -0.267.

The compound `CC1=CN2C(=N)/C(=C/c3ccc(C)o3)C(=O)N=C2S1` registered a z-score of 1.02. The result for `COc1ccccc1-c1nnc(N(C)C(=O)C2CCCO2)s1` (stereo not drawn) reads -0.00582.

Compound `O=C(CNC(=O)c1ccccc1)OC(C(=O)c1ccccc1)c1ccccc1` (stereo not drawn) showed a z-score of -0.485.

With `Cc1ccc(-c2nc(N)sc2CC(=O)OCC(=O)N2C(C)CCCC2C)cc1` (stereo not drawn), the z-score turned out to be 0.0105. Next, `c1ccc2c(c1)nc1n2CN(Cc2ccc3c(c2)OCO3)CN1`: -0.0714; `CCOc1ccc(NC(=O)CSc2nc3cccnc3n2CC)cc1`: -0.19. `CC(C)n1c(O)c(N=Nc2ccccn2)c2ccccc21`: the z-score turned out to be 2.21. Next, `O=C(CSc1nc(-c2ccccc2)cc(C(F)(F)F)n1)c1cccc([N+](=O)[O-])c1`: 0.00947; `COC(=O)c1ccccc1C(=O)N1CCOCCN(C(=O)c2ccccc2C(=O)OC)CCOCC1`: -0.145; `CCOC(=O)C(C#N)C(c1cccnc1)c1c(C)[nH][nH]c1=O` (stereo not drawn): -0.424.

For `COc1cccc(Nc2c(F)c(OC)c(F)c(F)c2C(=O)O)c1`, the z-score worked out at 1.1. Compound `Cc1nc2cc(C(=O)NCc3ccc4c(c3)OCO4)ccc2n1-c1ccc(Br)cc1` yielded a z-score of -0.51.

In the case of `Cc1cccc(C(=O)NNC(=O)c2ccc(Cl)cc2)c1O`, the z-score was 0.483. With `CCCn1nnc(NC(=O)c2ccccc2Cl)n1`, the z-score is 0.118. Next, `Cc1ccc(C)c(NC(=S)NCCN2CCOCC2)c1`: -0.307. Next, `Clc1cccc(CSc2nc3ccncc3[nH]2)c1`: active: 9.69.

Turning to `Cc1[nH]n(-c2ccc([N+](=O)[O-])cc2)c(=O)c1C=NCCN1CCN(C(=O)c2ccccc2)CC1`, the z-score is -0.194. `Cc1ccccc1SCc1noc(C(=O)NCC2CCCO2)c1C(=O)O` (stereo not drawn) registered a z-score of -0.235. Next, `CC(C)NCC(O)COc1ccc2c(c1)CCC2` (stereo not drawn): 0.104; `CCn1c(N2CCC(Cc3ccccc3)CC2)nc2c1c(=O)[nH]c(=O)n2C`: -0.83.

Consider `Cc1cc(C)n(-c2ccc(C(=O)Nc3nnc(C)s3)cc2)n1`, for which the z-score came out at 0.034. The result for `COCCCNC(=O)/C=C/c1c(Cl)cccc1Cl` reads -0.66. As to `O=C(CNc1c(Br)cc(Br)cc1Br)NN=C1CCCCC1`, the z-score is 0.011. The result for `O=C(Cn1cc(C(=O)c2ccco2)c2ccccc21)NCc1ccco1` reads -1.4; that for `COc1ccc(C)cc1N(C(=O)COc1cccc(F)c1)c1nc2ccccc2s1`, 0.179. Next, `CCOc1cc(C(=O)N/N=C(\C)Cc2ccc(OC)cc2)cc(OCC)c1OCC`: -0.269; `O=C(CSc1nnc2sc3ccccc3n12)N1CCN(c2ccccc2)CC1`: 0.426.
